The values that follow come from paper PMC4336329 (PLoS ONE, 2015).

Hit rate of the full screen: of about 310,000 compounds, about 14,000 (4.5%) showed an effect of 50% or more. The effect is printed as a negative number. The list shows a part of the results.
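Also: peak tail current of the secondary pulse compared with the same well before compound.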

In this experiment the target is human ether-à-go-go-related gene (hERG) potassium channel (human, UniProt Q12809). Put plainly: primary screen, population patch clamp on CHO cells stably expressing hERG.
Chain of human ether-à-go-go-related gene (hERG) potassium channel (Q12809 whole entry, looked up): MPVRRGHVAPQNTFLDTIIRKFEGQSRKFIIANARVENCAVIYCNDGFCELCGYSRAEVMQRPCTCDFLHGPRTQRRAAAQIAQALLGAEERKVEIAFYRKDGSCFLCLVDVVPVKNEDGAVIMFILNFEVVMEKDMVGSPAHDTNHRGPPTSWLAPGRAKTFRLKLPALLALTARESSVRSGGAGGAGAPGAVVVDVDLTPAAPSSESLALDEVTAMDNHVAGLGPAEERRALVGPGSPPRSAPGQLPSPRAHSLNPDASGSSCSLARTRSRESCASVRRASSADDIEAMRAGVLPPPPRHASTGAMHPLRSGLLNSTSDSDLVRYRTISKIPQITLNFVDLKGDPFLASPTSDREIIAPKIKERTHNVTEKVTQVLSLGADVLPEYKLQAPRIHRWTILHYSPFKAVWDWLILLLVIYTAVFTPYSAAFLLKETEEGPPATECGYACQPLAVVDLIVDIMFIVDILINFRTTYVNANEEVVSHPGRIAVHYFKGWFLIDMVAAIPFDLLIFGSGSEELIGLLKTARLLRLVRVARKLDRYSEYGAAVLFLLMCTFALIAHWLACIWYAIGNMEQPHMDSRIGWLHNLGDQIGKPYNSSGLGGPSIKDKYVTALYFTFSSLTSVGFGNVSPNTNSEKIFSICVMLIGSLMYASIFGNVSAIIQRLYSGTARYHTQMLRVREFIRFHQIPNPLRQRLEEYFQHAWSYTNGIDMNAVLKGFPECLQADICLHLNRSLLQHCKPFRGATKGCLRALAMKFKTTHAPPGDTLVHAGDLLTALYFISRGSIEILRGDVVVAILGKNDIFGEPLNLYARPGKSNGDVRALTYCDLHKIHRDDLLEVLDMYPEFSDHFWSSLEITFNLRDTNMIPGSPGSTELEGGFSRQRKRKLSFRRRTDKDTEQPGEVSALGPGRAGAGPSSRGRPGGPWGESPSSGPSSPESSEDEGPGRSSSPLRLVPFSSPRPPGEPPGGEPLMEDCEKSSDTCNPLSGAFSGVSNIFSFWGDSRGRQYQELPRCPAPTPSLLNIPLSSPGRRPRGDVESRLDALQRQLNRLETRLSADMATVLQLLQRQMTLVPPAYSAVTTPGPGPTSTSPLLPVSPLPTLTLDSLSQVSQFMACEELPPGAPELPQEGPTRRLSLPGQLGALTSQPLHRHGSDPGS
Consider `COCCn1c(SCC(=O)Nc2ccc3[nH]c(=O)[nH]c3c2)nc2ccccc2c1=O`, for which the “hERG current change (%, negative = inhibition) at 10uM” value was found to be 2.22%.
To `C=C1C(C(=O)Nc2ccccc2)C1C(=O)Nc1ccccc1` (stereo not shown) belongs -27.3%; to `CN(C)S(=O)(=O)c1cccc(NC(=O)COC(=O)CNC(=O)c2ccccc2F)c1`, -16.5%; to `CC(Oc1cccc(Cl)c1)C(=O)Nc1ccc(S(=O)(=O)NC2=NCCCCC2)cc1` (stereo not shown), -22.5%.
To `NC(=O)CCn1cnc2ccccc21` belongs 6.28%; to `O=C(NCc1cccs1)C(Cc1ccccc1)n1cccc1` (stereo not shown), -13.1%; to `COc1ccccc1C(=O)NNC(=O)c1cccc([N+](=O)[O-])c1`, -13.3%.
Take `CC(NC(=O)Cc1ccsc1)c1ccc(Cl)cc1Cl` (stereo not shown): the “hERG current change (%, negative = inhibition) at 10uM” value turned out to be 19.1%.
`CC(=O)C1=C(O)C(=O)N(CCCO)C1c1ccccc1` (stereo not shown): the “hERG current change (%, negative = inhibition) at 10uM” value turned out to be 6.08%.
As for `Cc1[nH]c(C)c2c(=O)n(-c3ccccc3)ncc12`, the figure is 10.2%; as for `Cc1ccc(NC(=S)NC(NC(=O)N(C)C)C(Cl)(Cl)Cl)cc1` (stereo not shown), 7.17%.
`COc1ccc(CN(C)C(=O)COC(=O)c2c(C)nn(-c3ccc(F)cc3)c2Cl)cc1`: the “hERG current change (%, negative = inhibition) at 10uM” value is on record as -71.1%.
In the case of `O=S(=O)(Nc1ccc(Cl)cn1)c1ccc2c(c1)OCCO2`, the “hERG current change (%, negative = inhibition) at 10uM” value is listed as 2.39%.
As for `COc1cccc(NC(=O)c2nnn(CCc3ccccc3)c2N)c1`, the figure is -10.7%; as for `COc1ccc(Nc2cc(C)nc3nc(C)nn23)cc1Cl`, -55.5%.
Consider `O=C(COc1ccc([N+](=O)[O-])cc1)Nc1cccc(C(=O)Nc2ccccc2C(=O)O)c1`, for which the “hERG current change (%, negative = inhibition) at 10uM” value is recorded as 1.98%.
As for `COc1ccccc1-c1noc(-c2ccccc2)n1`, the figure is 20.9%.
To `COc1ccc(CC(=O)Nc2nnc(SCC(=O)NCc3ccco3)s2)cc1OC` belongs 3.21%; to `FC(F)(F)c1nc(-c2ccccc2)ncc1-c1nnnn1-c1ccccc1`, 13.2%.
Take `O=C(N/N=C/c1ccc([N+](=O)[O-])cc1)c1cc(-c2ccc3c(c2)OCO3)n[nH]1`: the “hERG current change (%, negative = inhibition) at 10uM” value is given as 6.47%.
For `COc1ccccc1OCCNC(=O)C1CC(=O)N(Cc2ccc(C)cc2)C1` (stereo not shown), the “hERG current change (%, negative = inhibition) at 10uM” value was -3.37%.
To `CC(=O)N1CCSc2ccc(S(=O)(=O)NCCc3ccc(C)cc3)cc21` belongs -0.864%.
`CN(C)c1nc(N(C)C)nc(N(C)C)n1`: the “hERG current change (%, negative = inhibition) at 10uM” value is on record as 28%.
`COC(=O)CC(N)c1ccc(Br)cc1.Cl` (stereo not shown): the “hERG current change (%, negative = inhibition) at 10uM” value is recorded as 17.2%.
With `CC1=NN(C(N)=S)C(=O)C1N=Nc1ccc(Cl)cc1Cl` (stereo not shown), the “hERG current change (%, negative = inhibition) at 10uM” value amounted to 8.32%.
